# Test results: the supplement of paper PMC8728848
# Some of the results follow.
# B1: STA (Solanum tuberosum), Q9S8M0 (protein)
# chain: NASPPSPSPLPYPQCGMKKGGGKCIKTGECCSIWGWCGTTNAYCSPGYCQKQCPGPYPEGRCGWQANGKSCPTGTGQCCSNGGWCGTTSDYCASKNCQSQCKLPSPPPPPPPPSPPPPSPPSPPPPSPPPPPPPSPPPPSPPPPSPSPPPPPASPPPPPPALPYPQCGIKKGGGKCIKTGECCSIWGWCGTTNAYCSPGYCQKQCPGPYPEGRCGWQANGKSCPTGTGHCCSNAGWCGTTSDYCAPVNCQAQCNTTTLTSPIKNRMRGIESFMLNVV
# Legend:
# Experiment in all cases: glycan array binding signal (z-score within array); higher = stronger binding
# Details in all cases: glycan notation: IUPAC condensed, linker removed
# [1] = target: GlcNAc(b1-4)GlcNAc(b1-4)GlcNAc(b1-4)GlcNAc(b1-4)GlcNAc(b1-4)GlcNAc
# Procedure, shortened: (§1)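 Negative Z-scores can be read as non-binding. The Z-score is calculated within each array and then averaged across arrays of one protein sequence at different concentrations or buffers and across linkers. Arrays, 3228 in all, were curated from the Consortium for Functional Glycomics database and kept only where the protein sequence was available.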
# [2] = target: GlcNAc(b1-4)[GlcNAc(b1-6)]GalNAc
# Procedure, shortened: as §1
# [3] = target: GlcNAc(b1-6)Gal(b1-4)GlcNAc
# Procedure, shortened: as §1
# GlcNAc(b1-6)GalNAc = target: GlcNAc(b1-6)GalNAc
# Procedure, shortened: as §1
# Kdn(a2-3)Gal(b1-3)GlcNAc = target: Kdn(a2-3)Gal(b1-3)GlcNAc
# Procedure, shortened: as §1
# Kdn(a2-3)Gal(b1-4)GlcNAc = target: Kdn(a2-3)Gal(b1-4)GlcNAc
# Procedure, shortened: as §1
# [4] = target: Man(a1-2)Man(a1-2)Man(a1-3)Man
# Procedure, shortened: as §1
# [5] = target: Man(a1-2)Man(a1-2)Man(a1-3)[Man(a1-2)Man(a1-3)[Man(a1-2)Man(a1-6)]Man(a1-6)]Man(b1-4)GlcNAc(b1-4)GlcNAc
# Procedure, shortened: as §1
# [6] = target: Man(a1-2)Man(a1-2)Man(a1-3)[Man(a1-2)Man(a1-6)[Man(a1-3)]Man(a1-6)]Man(b1-4)GlcNAc(b1-4)GlcNAc
# Procedure, shortened: as §1
# [7] = target: Man(a1-2)Man(a1-2)Man(a1-6)[Man(a1-3)]Man
# Procedure, shortened: as §1
# Man(a1-2)Man(a1-3)Man = target: Man(a1-2)Man(a1-3)Man
# Procedure, shortened: as §1
# [8] = target: Man(a1-2)Man(a1-3)[Man(a1-2)Man(a1-6)]Man
# Procedure, shortened: as §1
# [9] = target: Man(a1-2)Man(a1-3)[Man(a1-3)[Man(a1-6)]Man(a1-6)]Man(b1-4)GlcNAc(b1-4)GlcNAc
# Procedure, shortened: as §1
# [10] = target: Man(a1-2)Man(a1-3)[Man(a1-6)]Man(a1-6)[Man(a1-2)Man(a1-3)]Man(b1-4)GlcNAc(b1-4)GlcNAc
# Procedure, shortened: as §1
# Man(a1-3)[Man(a1-6)]Man = target: Man(a1-3)[Man(a1-6)]Man
# Procedure, shortened: as §1
# [11] = target: Man(a1-3)[Man(a1-6)]Man(a1-6)[Man(a1-3)]Man(b1-4)GlcNAc(b1-4)GlcNAc
# Procedure, shortened: as §1
# [12] = target: Man(a1-3)[Man(a1-6)]Man(b1-4)GlcNAc(b1-4)GlcNAc
# Procedure, shortened: as §1
# Man(b1-4)GlcNAc = target: Man(b1-4)GlcNAc
# Procedure, shortened: as §1
# Neu5Ac(a2-3)Gal = target: Neu5Ac(a2-3)Gal
# Procedure, shortened: as §1
# [13] = target: Neu5Ac(a2-3)Gal(b1-3)GalNAc
# Procedure, shortened: as §1
# [14] = target: Neu5Ac(a2-3)Gal(b1-3)GalNAc(b1-3)Gal(a1-4)Gal(b1-4)Glc
# Procedure, shortened: as §1
# [15] = target: Neu5Ac(a2-3)Gal(b1-3)GalNAc(b1-4)[Neu5Ac(a2-3)]Gal(b1-4)Glc
# Procedure, shortened: as §1
# [16] = target: Neu5Ac(a2-3)Gal(b1-3)GalNAc6S
# Procedure, shortened: as §1
# [17] = target: Neu5Ac(a2-3)Gal(b1-3)GlcNAc
# Procedure, shortened: as §1
# [18] = target: Neu5Ac(a2-3)Gal(b1-3)GlcNAc(b1-3)Gal(b1-3)GlcNAc
# Procedure, shortened: as §1
# [19] = target: Neu5Ac(a2-3)Gal(b1-3)GlcNAc(b1-3)Gal(b1-4)GlcNAc
# Procedure, shortened: as §1
# [20] = target: Neu5Ac(a2-3)Gal(b1-3)GlcNAc6S
# Procedure, shortened: as §1
# [21] = target: Neu5Ac(a2-3)Gal(b1-3)[Fuc(a1-4)]GlcNAc
# Procedure, shortened: as §1
# [22] = target: Neu5Ac(a2-3)Gal(b1-3)[Fuc(a1-4)]GlcNAc(b1-3)Gal(b1-4)[Fuc(a1-3)]GlcNAc
# Procedure, shortened: as §1
# [23] = target: Neu5Ac(a2-3)Gal(b1-3)[Neu5Ac(a2-3)Gal(b1-4)]GlcNAc
# Procedure, shortened: as §1
# [24] = target: Neu5Ac(a2-3)Gal(b1-3)[Neu5Ac(a2-6)]GalNAc
# Procedure, shortened: as §1
# Neu5Ac(a2-3)Gal(b1-4)Glc = target: Neu5Ac(a2-3)Gal(b1-4)Glc
# Procedure, shortened: as §1
# [25] = target: Neu5Ac(a2-3)Gal(b1-4)GlcNAc
# Procedure, shortened: as §1
# [26] = target: Neu5Ac(a2-3)Gal(b1-4)GlcNAc(b1-3)Gal(b1-3)GlcNAc
# Procedure, shortened: as §1
# [27] = target: Neu5Ac(a2-3)Gal(b1-4)GlcNAc(b1-3)Gal(b1-4)GlcNAc
# Procedure, shortened: as §1
# [28] = target: Neu5Ac(a2-3)Gal(b1-4)GlcNAc(b1-3)Gal(b1-4)GlcNAc(b1-3)Gal(b1-4)GlcNAc
# Procedure, shortened: as §1
binder,measurement,setting,value
B1,glycan array binding signal (z-score),[1],2.18
same,glycan array binding signal (z-score),[2],-0.583
same,glycan array binding signal (z-score),[3],-0.594
same,glycan array binding signal (z-score),GlcNAc(b1-6)GalNAc,-0.596
same,glycan array binding signal (z-score),Kdn(a2-3)Gal(b1-3)GlcNAc,-0.56
same,glycan array binding signal (z-score),Kdn(a2-3)Gal(b1-4)GlcNAc,1.65
same,glycan array binding signal (z-score),[4],-0.592
same,glycan array binding signal (z-score),[5],-0.447
same,glycan array binding signal (z-score),[6],-0.104
same,glycan array binding signal (z-score),[7],-0.593
same,glycan array binding signal (z-score),Man(a1-2)Man(a1-3)Man,-0.593
same,glycan array binding signal (z-score),[8],-0.586
same,glycan array binding signal (z-score),[9],0.864
same,glycan array binding signal (z-score),[10],-0.414
same,glycan array binding signal (z-score),Man(a1-3)[Man(a1-6)]Man,-0.595
same,glycan array binding signal (z-score),[11],-0.197
same,glycan array binding signal (z-score),[12],1.71
same,glycan array binding signal (z-score),Man(b1-4)GlcNAc,-0.269
same,glycan array binding signal (z-score),Neu5Ac(a2-3)Gal,-0.56
same,glycan array binding signal (z-score),[13],-0.571
same,glycan array binding signal (z-score),[14],-0.585
same,glycan array binding signal (z-score),[15],-0.577
same,glycan array binding signal (z-score),[16],-0.558
same,glycan array binding signal (z-score),[17],-0.53
same,glycan array binding signal (z-score),[18],-0.575
same,glycan array binding signal (z-score),[19],1.81
same,glycan array binding signal (z-score),[20],-0.579
same,glycan array binding signal (z-score),[21],-0.574
same,glycan array binding signal (z-score),[22],-0.589
same,glycan array binding signal (z-score),[23],-0.532
same,glycan array binding signal (z-score),[24],-0.575
same,glycan array binding signal (z-score),Neu5Ac(a2-3)Gal(b1-4)Glc,-0.584
same,glycan array binding signal (z-score),[25],1.9
same,glycan array binding signal (z-score),[26],-0.499
same,glycan array binding signal (z-score),[27],1.64
same,glycan array binding signal (z-score),[28],1.71
